From article PMC4336329 (PLoS ONE, 2015)
The campaign covered roughly 310,000 compounds. About 2,200 (0.71%) showed an effect of 50% or more. The effect is printed as a negative number. The list shows a part of the results.

Target: human ether-à-go-go-related gene (hERG) potassium channel (human, UniProt Q12809)
Assay: primary screen, population patch clamp on CHO cells stably expressing hERG

human ether-à-go-go-related gene (hERG) potassium channel, sequence (Q12809 whole entry, looked up): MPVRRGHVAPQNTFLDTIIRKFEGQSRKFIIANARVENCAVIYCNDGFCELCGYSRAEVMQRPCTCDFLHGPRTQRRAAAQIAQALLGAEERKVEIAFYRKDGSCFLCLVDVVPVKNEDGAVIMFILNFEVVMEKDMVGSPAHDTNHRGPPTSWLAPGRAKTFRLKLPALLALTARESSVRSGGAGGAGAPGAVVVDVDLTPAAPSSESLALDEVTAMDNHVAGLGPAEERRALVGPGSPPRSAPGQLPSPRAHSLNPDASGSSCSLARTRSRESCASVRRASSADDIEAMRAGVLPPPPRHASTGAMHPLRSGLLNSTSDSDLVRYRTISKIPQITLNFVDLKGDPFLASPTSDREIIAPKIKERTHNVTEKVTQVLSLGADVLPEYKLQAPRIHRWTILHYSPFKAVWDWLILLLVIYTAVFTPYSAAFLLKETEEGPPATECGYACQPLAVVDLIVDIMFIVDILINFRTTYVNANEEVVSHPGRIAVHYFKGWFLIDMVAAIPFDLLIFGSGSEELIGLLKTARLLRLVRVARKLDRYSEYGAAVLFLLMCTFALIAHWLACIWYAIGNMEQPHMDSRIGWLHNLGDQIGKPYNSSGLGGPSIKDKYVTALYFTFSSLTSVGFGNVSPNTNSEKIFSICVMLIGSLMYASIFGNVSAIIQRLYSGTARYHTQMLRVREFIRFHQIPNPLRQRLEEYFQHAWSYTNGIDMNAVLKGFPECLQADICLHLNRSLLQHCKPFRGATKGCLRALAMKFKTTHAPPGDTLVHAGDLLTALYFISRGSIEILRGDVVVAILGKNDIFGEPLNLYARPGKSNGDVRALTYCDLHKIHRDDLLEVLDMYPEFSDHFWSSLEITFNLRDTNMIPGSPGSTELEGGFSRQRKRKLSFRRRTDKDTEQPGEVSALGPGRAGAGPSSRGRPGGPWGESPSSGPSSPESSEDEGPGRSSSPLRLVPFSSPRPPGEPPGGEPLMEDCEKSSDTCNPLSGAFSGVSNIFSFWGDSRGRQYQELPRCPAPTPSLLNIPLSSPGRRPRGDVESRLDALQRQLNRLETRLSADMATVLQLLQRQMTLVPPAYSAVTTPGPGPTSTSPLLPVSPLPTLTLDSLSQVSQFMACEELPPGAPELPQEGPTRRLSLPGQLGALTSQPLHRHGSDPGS

| SMILES | hERG current change (%, negative = inhibition) at 1uM [%] |
| --- | --- |
| CN(Cc1nc2ccccc2[nH]1)Cc1nc(CC2CC2)no1 | 3.11 |
| COc1ccccc1/C=N/N1C(=O)C(CC(=O)Nc2ccc([N+](=O)[O-])cc2OC)SC1=Nc1cccc(C)c1C (centres unmarked) | 10.7 |
| CCc1c(C)nc(SCC(=O)N2CCCCC2C)[nH]c1=O (centres unmarked) | 10.6 |
| COCCN(C(=O)c1ccccc1OC)c1nnc(C)s1 | 7.48 |
| CC(=O)Nc1ccc(S(=O)(=O)N2CCN(C(=O)Cc3ccccc3)CC2)cc1 | 3.3 |
| O=C(NCCCn1ccnc1)/C(=C\c1cccs1)NC(=O)c1ccco1 | -5.24 |
| COc1ccc(OC2CCN(S(=O)(=O)c3ccc(OC)cc3)CC2)cc1 | 12 |
| CC(CNC(=O)Cn1ccc(NC(=O)OCc2ccccc2)nc1=O)c1ccccc1 (centres unmarked) | 7.22 |
| COc1ccc(CC(=O)Nc2nnc(-c3cccc([N+](=O)[O-])c3)s2)cc1 | 9.09 |
| O=C(Nc1nc(-c2cccc3ccccc23)cs1)c1ccc2c(c1)S(=O)(=O)c1ccccc1C2=O | 15 |
| NNC(=O)c1csc(-c2ccccc2)n1 | 19.6 |
| CCOC(=O)c1c(NC(=O)CCN2CCOCC2)sc(C)c1-c1ccccc1 | 16.3 |
| Cn1c2ccccc2c2cc(C(=O)O)ccc21 | 8.56 |
| O=C(O)CSCc1nc2ccccc2s1 | 11.4 |
| O=C(NC1CCCC1)C(c1cccs1)N(C(=O)c1ccco1)c1ccc2c(c1)OCO2 (centres unmarked) | 11.1 |
| COc1ccc(-c2nnn(CC(=O)Nc3sc4c(c3C#N)CCCC4)n2)cc1 | 13.7 |
| Nc1c(C(=O)O)cnc2nc(N3CCOCC3)nn12 | 16.6 |
| CCOC(=O)C1=C(COC(=O)/C=C/c2ccccc2)NC(=O)NC1C (centres unmarked) | 4.52 |
| Cc1ccccc1CS(=O)(=O)CCC(=O)NCCCN1CCOCC1 | 6.53 |
| O=C(NC12CC3CC(CC(C3)C1)C2)N1CCN(c2ccccn2)CC1 | 12.7 |
| CCc1nnc(NS(=O)(=O)c2ccc(NC(=O)c3cc(Cl)ccc3Cl)cc2)s1 | 14 |
| COc1ccc2ccccc2c1/C=N/O | 12.2 |
| Cn1nc(-c2ccc(S(N)(=O)=O)s2)cc1C(F)(F)F | 9.37 |

| SMILES | hERG current change (%, negative = inhibition) at 1uM [%] |
| --- | --- |
| CC(=O)Nc1ccc(S(=O)(=O)NCC(=O)OCc2cc(=O)oc3ccc4ccccc4c23)cc1 | 13.7 |
| O=C(Nc1ccc(C(F)(F)F)cc1)OC1CN2CCC1CC2 (centres unmarked) | -8.69 |
| O=C(O)c1c2c(nc3ccc(S(=O)(=O)N4CCC(C(=O)NC5CCCCCC5)CC4)cc13)CCCC2 | 8.59 |
| COc1ccccc1OCC#CCNC1CCCCC1C.O=C(O)C(=O)O (centres unmarked) | 4.24 |
| Cl.Clc1ccc(CNC2CCCC2)cc1 | 1.03 |
| O=C(CSc1ccccc1)Nc1ccc2c(c1)OCCO2 | 8.08 |
| Cc1onc(-c2ccccc2Cl)c1C(=O)Nc1cccc(-c2nc3ncccn3c2C)c1 | -38.2 |
| CCC(C)[C@H](NC(=O)Nc1ccccc1F)C(=O)OC (some centres unmarked) | 12.8 |
| COc1cc(-c2noc(C3CCCN(C(=O)c4c(F)cccc4F)C3)n2)cc(OC)c1OC (centres unmarked) | 15.5 |
| O=C(O)C1C2CCC(CC2)C1C(=O)N1CCN(Cc2ccc(F)cc2)CC1 (centres unmarked) | 22.1 |
| C=CCn1c(O)c2ccc(C(=O)N=NC(=O)c3ccc(F)cc3)cc2c1O | 12.9 |
| CC(=O)N(/N=C1\Sc2ccccc2C1=O)c1ccccc1C | -7.05 |
| CC(C)CCn1c(CN2CCN(C(=O)c3ccco3)CC2)nc2c1c(=O)n(C)c(=O)n2C | -5.44 |
| O=C(O)c1cccc(NC(=O)c2cn(-c3ccccc3)nc2-c2ccc(F)cc2)c1 | 14.7 |
| CCOC(=O)N1CCN(C(=O)c2ccc(NC(=O)c3ccc(C)cc3)cc2)CC1 | 1.61 |
| CCOC(=O)c1sc2cc([N+](=O)[O-])cc(SCC(C)C)c2c1N | 13 |
| C[C@@H](NC(=O)c1[nH]cnc1C(=O)Nc1ccccc1)c1ccccc1 | 15 |
| CN(/N=C/c1cc(Cl)cc(Cl)c1O)C(=S)NC(C)(C)C | 7.47 |
| N#C/C(=C\C1CC=CCC1)c1nc2ccccc2[nH]1 (centres unmarked) | -2.32 |
| CCN(CC)S(=O)(=O)c1ccc(N2CCOCC2)c(NC(=O)C(=O)c2c(-c3ccccc3)cc3ccccn23)c1 | 16.1 |
| Cc1nn(C)cc1S(=O)(=O)Nc1ncccn1 | -5.88 |
| CCN(CC)S(=O)(=O)c1ccc(NC(=O)COC(=O)c2c[nH]c(=O)[nH]c2=O)cc1 | 11.1 |
| Cc1c(NC(=O)C(C)Sc2n[nH]c(N)n2)c(=O)n(-c2ccccc2)n1C (centres unmarked) | 13.3 |

| SMILES | hERG current change (%, negative = inhibition) at 1uM [%] |
| --- | --- |
| CCOC(=O)c1oc2ccc(/C=N/O)c(Cl)c2c1C | 17.2 |
| O=C1CCCC/C1=C\Nc1ccccc1C(=O)O | -3.31 |
| NC(N)=NS(=O)(=O)c1ccc(N/C=C/C(=O)c2ccc(Cl)c(Cl)c2)cc1 | 13.4 |
| CCOC(=O)c1c(C)n(C)c2ccc(OC)c(NC(=O)c3cccs3)c12 | 13.3 |
| C#CCOc1c(Br)cc(/C=C2/C(=O)ON=C2C)cc1OC | 24.9 |
| NC(=O)c1ccccc1NC(=O)N1CCOCC1 | 8.57 |
| O=C(Cc1cccs1)NCc1cccc(Cl)c1 | 9.08 |
| CC(C)(C)NC(=O)C(c1ccncc1)N(Cc1ccco1)C(=O)c1ccc(-c2ccccc2)[nH]1 (centres unmarked) | 7.8 |
| O=C1c2cccnc2C(=O)N1Cc1ccc(Cl)cc1 | 1.82 |
| Cc1c(Cl)ccc2sc(N3CCN(C(=O)C4=COCCO4)CC3)nc12 | 6.27 |
| CCN(CC)CCN=Cc1c(O)n(CCC2=CCCCC2)c(=O)[nH]c1=O | -46 |
| CCOc1cc(/C=N/Nc2nnc(C)n2N)ccc1O.Cl | 14.9 |
| CC1(C)SC2c3ccccc3C(=O)N2[C@@H]1C(=O)NC1CCCC1 (some centres unmarked) | -2.03 |
| Cc1nc(N)ncc1-c1ccc2c(c1)OCO2 | 14.6 |
| CC(C)n1cc(CN2CCCC(C(=O)Nc3cccc(-c4cc5ccccc5[nH]4)c3)C2)cn1 (centres unmarked) | 1.21 |
| O=C(CSc1n[nH]c(C2CCCC2)n1)NC1CCCC1 | 1.83 |
| N#Cc1sc2nc(C3CC3)cc(-c3ccccc3)c2c1N | 0.0178 |
| COc1ccc(S(=O)(=O)Nc2ccc(O)c3ccccc23)cc1 | 5.1 |
| CCOC(=O)c1c(NC(=O)c2ccco2)sc2c1CCCC2 | 3.16 |
| N#Cc1ccccc1Sc1ccccc1C(=O)OCC(=O)NC12CC3CC(CC(C3)C1)C2 | 4.54 |
| CC(CC(C)C(=O)Nc1ccccc1C(C)(C)C)C(=O)O (centres unmarked) | 6.18 |
| CS(=O)(=O)Oc1ccc2c(c1)O/C(=C\c1cccnc1)C2=O | 4.56 |
| O=C(Nc1cccc(C(F)(F)F)c1)c1cccn(Cc2ccc3c(c2)OC(F)(F)O3)c1=O | -1.04 |

| SMILES | hERG current change (%, negative = inhibition) at 1uM [%] |
| --- | --- |
| COc1ccc2cc(C#N)c(N3CCN(C(=O)c4ccccc4C)CC3)nc2c1 | 5.62 |
| Cc1ccc(S(=O)(=O)N(CC(=O)Nc2cccc([N+](=O)[O-])c2)C2CCCCC2)cc1 | 10.2 |
| N/C(=N/O)c1nc(N2CCCC2)nc(N(c2ccccc2)c2ccccc2)n1 | 10.3 |
| CCCCc1ccc(NC(=O)CN(C)CC(=O)Nc2ccccc2Cl)cc1 | -1.58 |
| Cc1csc(SCCn2c(Br)nc3c2c(=O)[nH]c(=O)n3C)n1 | -0.127 |
| CN(C)C1=NC[C@H](Cc2ccccc2)N1CCCC1CCCCC1 | -29.5 |
| COc1ccccc1C(=O)NCCC(=O)N1CCN(c2ccccc2Cl)CC1 | -2.06 |
| COc1ccc(CC(=O)Oc2ccc(Br)cc2F)cc1S(=O)(=O)N1CCOCC1 | -4.42 |
| O=C(NCc1ccc2c(c1)OCO2)C1COc2ccccc2O1 (centres unmarked) | 9.41 |
| O=C1C2CC=CCC2C(=O)N1c1ccc(NCCc2ccc(Cl)cc2)c([N+](=O)[O-])c1 (centres unmarked) | 10.3 |
| COc1ccc(S(=O)(=O)NCc2cc(=O)n(C)c(=O)n2C)cc1C | 12.6 |
| Cl.O=C(CCN1CCOCC1)N1c2ccccc2Sc2ccc(Cl)cc21 | 5.51 |
| COc1ccc(CC(=O)N/N=C(/C)c2ccco2)cc1 | 1.26 |
| CCOc1cc(/C=N/NC(=O)C(=O)NCc2cccnc2)ccc1O | 14.4 |
| CCN(c1ccccc1)S(=O)(=O)c1cccc(C(=O)Nc2ccc(C)cn2)c1 | 9.97 |
| N/C(=N\OC(=O)CCCc1ccccc1)c1ccccc1Cl | 6.08 |
| CC(=O)n1c(=O)c2ccccc2c(=O)n1-c1ccccc1 | 6.47 |
| O=C1NC2(Nc3ccccc31)C(=O)Nc1ccc(Br)cc12 (centres unmarked) | 5.54 |
| c1ccc(-c2cc(-c3ccccc3)[nH]n2)cc1 | 13.5 |
| CCSc1nc2ccccc2n1CC(=O)O | 21.7 |
